# Results as given in PubChem BioAssay AID2676 (National Center for Advancing Translational Sciences (NCATS), 2010).
# In all, about 370,000 compounds went through this assay and about 1,100 (0.3%) were called active. The inconclusive results got no clear call from the source; some entries with a clear call stand among them for comparison. The call rests on the fitted dose curve; in most records, active means well fitted activation curve with a large enough effect; inconclusive means small, poorly fitted or top-dose-only effect; inactive means flat fitted curve, though single readings scatter. Potencies beside an inconclusive call are fits to weak or partial responses and may not hold up.
# Molecular target: Relaxin receptor 1 (Homo sapiens) (UniProt Q9HBX9)
# UniProt Q9HBX9, sequence (Q9HBX9 whole entry, looked up): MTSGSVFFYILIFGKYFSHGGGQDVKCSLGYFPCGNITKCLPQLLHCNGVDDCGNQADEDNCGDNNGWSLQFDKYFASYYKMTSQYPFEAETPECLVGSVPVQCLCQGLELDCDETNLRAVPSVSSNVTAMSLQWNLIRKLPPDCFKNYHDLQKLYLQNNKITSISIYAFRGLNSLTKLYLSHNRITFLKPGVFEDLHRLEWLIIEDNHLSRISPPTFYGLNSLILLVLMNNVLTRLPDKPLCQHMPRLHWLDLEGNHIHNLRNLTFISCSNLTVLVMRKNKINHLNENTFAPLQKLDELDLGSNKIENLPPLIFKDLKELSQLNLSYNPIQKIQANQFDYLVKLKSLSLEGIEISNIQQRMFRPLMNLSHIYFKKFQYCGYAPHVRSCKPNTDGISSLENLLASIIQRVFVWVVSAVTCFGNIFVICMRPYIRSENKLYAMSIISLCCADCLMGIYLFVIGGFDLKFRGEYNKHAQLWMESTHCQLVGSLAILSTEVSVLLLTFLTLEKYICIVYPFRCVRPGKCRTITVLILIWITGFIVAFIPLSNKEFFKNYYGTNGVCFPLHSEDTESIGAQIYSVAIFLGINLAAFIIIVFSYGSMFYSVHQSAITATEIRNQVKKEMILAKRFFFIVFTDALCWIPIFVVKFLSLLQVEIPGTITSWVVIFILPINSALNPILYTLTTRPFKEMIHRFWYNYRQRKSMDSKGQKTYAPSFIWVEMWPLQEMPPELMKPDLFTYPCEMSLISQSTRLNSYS
# Assay: qHTS Assay for Agonists of the Relaxin Receptor RXFP1; further: nearly all actives have a fitted effect of over 60% in size
# Settings: HEK293T-RXFP1 cAMP TR-FRET, 30 min; series mostly up to 57.5 µM; activation: at the top concentration
# Method in brief: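 Agonist response is measured as cAMP accumulation in an RXFP1-transfected HEK293T line under PDE4 inhibition. Values are scaled between buffer-only and 29 nM porcine relaxin, and EC50s come from standard Hill equation fits.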
# On the % scale 0 is the no-effect control and ±100 the full control effect; potency means the concentration at half of the fitted maximal effect; tags describe the fitted curve by direction and shape.
SMILES,activation,Potency
Cc1cc(OCC(=O)NCCN2CCOCC2)ccc1Br,inactive: 0.0132%,
CCc1cccc(C)c1NC(=O)C(CC)Sc1nncn2c1cc1occc12 (stereo unspecified),,"inconclusive: 28.2 µM [activator, partial curve]"
Nc1ccccc1-c1n[nH]c(=S)s1,,active: 28.2 µM
COc1ccc(CC(=O)Nc2nc(-c3ccc(F)c(F)c3)cs2)cc1,inactive: -3.03%,
C/C(CCC(=O)OC[C@H]1O[C@H](C#Cc2ccccc2)C=C[C@@H]1Oc1ccc(C)cc1)=N\O[C@@H](C)CN1CCCCc2nc(C)c(C)cc21,inactive: 2.29%,
CCCC(=O)N=c1sc2c(OC)ccc(OC)c2n1C,,"inconclusive: 39.8 µM [activator, single point]"
Cc1c(C(=O)OCC(=O)Nc2ccc(S(N)(=O)=O)cc2)oc2c1ccc1ccccc12,,"inconclusive: 31.6 µM [activator, single point]"
Cc1nonc1NC(=O)c1oc2ccc(F)cc2c1C,,"inconclusive: 35.5 µM [activator, single point]"
CSCCC(NS(=O)(=O)c1ccc2c(c1)Cc1cc(S(=O)(=O)NC(CCSC)C(=O)O)ccc1-2)C(=O)O (stereo unspecified),,"inconclusive: 17.8 µM [activator, partial curve]"
COc1ccccc1NC(=O)c1sc2nc(C)c(C(=O)Nc3ccc(C)cc3C)c(-c3ccccc3Cl)c2c1N,,"inconclusive: 31.6 µM [activator, partial curve]"
Cc1ccc(C)c(S(=O)(=O)N2CCCOC2CNC(=O)C(=O)NCCC2=CCCCC2)c1 (stereo unspecified),inactive: 2.67%,
CC(=O)c1c(C)nc(Nc2nc3ccccc3s2)nc1C,,"inconclusive: 35.5 µM [activator, single point]"
COc1ccc(CC(=O)NCc2nn(-c3ccccc3)nc2C)cc1OC,inactive: 0.603%,
CC(=O)Nc1ccc(-c2cc(-c3ccc(NC(C)=O)cc3)nc(-c3ccc(NC(C)=O)cc3)n2)cc1,,"inconclusive: 31.6 µM [activator, single point]"
CCOC(=O)c1cc(-c2cc(OC)c(OC)c(OC)c2)nc2c1c(=O)[nH]c(=O)n2Cc1ccccc1,,"inconclusive: 31.6 µM [activator, single point]"
CC(C)(C)c1cc(C(=O)NCc2ccccc2)ccn1,inactive: 1.79%,
O=C(OCc1cc(=O)n2nc(C3CC3)sc2n1)c1ccc(NC(=O)c2ccccc2F)cc1,,"inconclusive: 39.8 µM [activator, single point]"
CC1=NN(CCC#N)C(=O)/C1=C/c1ccc(N(C)C)cc1,inactive: 0.501%,
Cc1ccc(-c2cc(C(=O)N3CCN(c4ncccn4)CC3)c3cc(Br)ccc3n2)o1,,"inconclusive: 20 µM [activator, partial curve]"
CCS(=O)(=O)Nc1ccc(-c2nnc(SCC(=O)c3cccc(OC)c3)o2)cc1,,"inconclusive: 35.5 µM [activator, single point]"
CC1CCN(S(=O)(=O)c2ccc3nc(N4CCN(c5ccc(F)cc5)CC4)ccc3c2)CC1,,"inconclusive: 5.62 µM [activator, single point]"

SMILES,activation,Potency
O=[N+]([O-])c1cc2c(c(CSc3nnc4ccccn34)c1)OCOC2,,"inconclusive: 15.8 µM [activator, partial curve]"
Cn1c(=O)c2cc(S(=O)(=O)NC(Cc3ccccc3)C(=O)NCC3CCCO3)ccc2n(C)c1=O (stereo unspecified),,"inconclusive: 31.6 µM [activator, partial curve]"
CCOc1ccc(NC(=O)CCSc2nc(-c3ccc4c(c3)OCO4)cc(C(F)(F)F)n2)cc1,,"inconclusive: 35.5 µM [activator, single point]"
COc1ccc(C2CC(=O)c3cnc(N4CCc5ccccc54)nc3C2)cc1OC (stereo unspecified),,"inconclusive: 31.6 µM [activator, single point]"
CCOc1ccccc1NC(=O)CSC1=C(C#N)C(c2ccco2)C(C(=O)Nc2nc3ccccc3s2)=C(C)N1 (stereo unspecified),,"inconclusive: 25.1 µM [activator, partial curve]"
CCCCNc1c(-c2ccc(SC(C)CC)c(OC)c2)nc2ccc(C)cn12 (stereo unspecified),,"inconclusive: 28.2 µM [activator, single point]"
CC(=O)Nc1cccc(-c2cn3cccnc3n2)c1,,"inconclusive: 15.8 µM [activator, partial curve]"
O=C(Cn1c(=O)n2nc(-c3cccc(F)c3)nc2c2ccccc21)N1CCN(c2ccccc2F)CC1,,"inconclusive: 35.5 µM [activator, single point]"
CC(C)OCCCn1c(=O)c2ccccc2n2c(CCC(=O)NC3CCN(Cc4ccccc4)CC3)nnc12,inactive: 15.6%,
CCOc1ccc(NC(=O)CSc2nc(=O)[nH]c3c2CCC3)cc1,inactive: 1.09%,
CSc1ccc(C2C(C(=O)c3ccco3)=C(O)C(=O)N2c2nnc(SC)s2)cc1 (stereo unspecified),,active: 15.8 µM
COc1ccc(-c2cc3ccc(O)c(CN4CCCC4)c3oc2=O)cc1OC,,"inconclusive: 35.5 µM [activator, partial curve]"
Cc1ccc(C)c(CNC(=O)c2sc3ncnc(N(C)C4CCCCC4)c3c2C)c1,,"inconclusive: 25.1 µM [activator, partial curve]"
O=C(Cc1cccc2ccccc12)N/N=C/c1ccc(Sc2nc3ccccc3s2)o1,inactive: -0.737%,
COc1ccc2c(c1)C=C(CN1CCC(CO)(CCc3ccccc3)CC1)CO2,inactive: -2.46%,
Cn1c(=O)c2c(nc(SCC(=O)N3CCOCC3)n2C)n(C)c1=O,,"inconclusive: 20 µM [activator, partial curve]"
C/C=C/C(=O)Nc1cccc(C2=NOC3(C2)C[C@@H](C(N)=O)N(C(=O)c2cc([N+](=O)[O-])cc([N+](=O)[O-])c2C)C3)c1 (stereo partly specified),inactive: 6.58%,
Cc1ccc(Cl)cc1NC(=O)CSc1nc2ccccc2nc1Cc1ccccc1,,"inconclusive: 28.2 µM [activator, partial curve]"
COc1ccccc1NC(=O)c1oc2ccccc2c1NC(=O)C1CCCCC1,,"inconclusive: 35.5 µM [activator, single point]"
CCN(CC)S(=O)(=O)c1ccc(C)c(NC(=O)Cn2cnc3cc([N+](=O)[O-])ccc3c2=O)c1,,"inconclusive: 14.1 µM [activator, partial curve]"
